# Measurements as given in ChEMBL document CHEMBL5606458, “ASAP - ZIKV NS2B-NS3 protease fluorescence single point” (2024).
# Among all 2,700 compounds or so, about 160 (5.9%) showed an effect of 50% or more. The list shows a part of the results.
# Target: Nonstructural protein 3 (Zika virus) (UniProt A0A024AXB9)
# [1] = PRVABC59, Concentration 50.0 uM, Number of replicates 1.0
# [2] = PRVABC59, Concentration 15.0 uM, Number of replicates 1.0
# Sequence of UniProt A0A024AXB9 (A0A024AXB9 as listed by the source): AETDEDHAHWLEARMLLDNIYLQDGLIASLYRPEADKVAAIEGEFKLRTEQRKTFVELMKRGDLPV
compound,measurement,setting,value
Cc1cnccc1NC(=O)c1csc(CC(C)C)n1,inhibition,"PRVABC59, Concentration 49.5 uM, Number of replicates 2.0, Standard deviation 2.5907989886936305 %",1.98%
same,inhibition,"PRVABC59, Concentration 99.01 uM, Number of replicates 2.0, Standard deviation 1.9094189704762088 %",3.41%
same,inhibition,"PRVABC59, Concentration 198.0 uM, Number of replicates 2.0, Standard deviation 1.8964648837052944 %",6.16%
Cc1n[nH]c(NC(=O)C2CCN(c3ccc(C=O)cc3)CC2)c1Br,inhibition,[1],23.1%
Cc1cc(CO)c2cccc(Cc3ccccc3NC(=O)c3nc(N)n[nH]3)c2n1,inhibition,"PRVABC59, Concentration 49.95 uM, Number of replicates 2.0, Standard deviation 1.1858913556413317 %",-1.17%
same,inhibition,"PRVABC59, Concentration 99.9 uM, Number of replicates 2.0, Standard deviation 1.6592298829189325 %",2.56%
O=Cc1ccc(N2CCC(C(=O)N(CCc3ccccc3)C3CCCC3)CC2)cc1,inhibition,[1],23.2%
Cc1cc(CO)c2cccc(Cc3cccc(C(=O)N4CCC(CN)CC4)c3)c2n1,inhibition,"PRVABC59, Concentration 49.95 uM, Number of replicates 2.0, Standard deviation 0.3303341859864401 %",94.6%
same,inhibition,"PRVABC59, Concentration 99.9 uM, Number of replicates 2.0, Standard deviation 0.3198467013777773 %",90.9%
CN(C)Cc1cccc(CNC(=O)C2CCN(c3ccc(C=O)cc3)CC2)c1,inhibition,"PRVABC59, Concentration 10.0 uM, Number of replicates 1.0",30%
CN(CC[C@H](O)c1cccs1)C(=O)c1cc(Cl)ccc1NS(=O)(=O)c1ccc(Oc2ccccc2Cl)cc1,inhibition,[2],7.67%
O=Cc1ccc(N2CCC(C(=O)N3CCN(C(=O)c4ccc(O)cc4)CC3)CC2)cc1,inhibition,[1],27.6%
CC(C)(C)c1csc(NC(=O)c2cc(Cl)ccc2NS(=O)(=O)c2ccc(Oc3ccccc3Cl)cc2)n1,inhibition,[2],22.1%
O=Cc1ccc(N2CCC(C(=O)N3CCN(C/C=C/c4ccccc4)CC3)CC2)cc1,inhibition,[1],25.2%
Cc1c(C(=O)N[C@@]2(C)CCN(Cc3cnn[nH]3)C2)ccc(O)c1NC(=O)c1ccncc1F,inhibition,"PRVABC59, Concentration 49.5 uM, Number of replicates 2.0, Standard deviation 2.392637309100642 %",-3.82%
same,inhibition,"PRVABC59, Concentration 99.01 uM, Number of replicates 2.0, Standard deviation 2.599773854519374 %",-2.18%
same,inhibition,"PRVABC59, Concentration 198.0 uM, Number of replicates 2.0, Standard deviation 3.576274229815126 %",0.466%
CN(C)c1ccc(C(=O)Nc2cc(Cl)cc(C(=O)NC(C)(C)CO)c2)nc1,inhibition,"PRVABC59, Concentration 49.5 uM, Number of replicates 2.0, Standard deviation 3.9613998246279105 %",-1.53%
same,inhibition,"PRVABC59, Concentration 99.01 uM, Number of replicates 2.0, Standard deviation 2.7948399639930708 %",0.849%
Cc1cc(CO)c2cccc(NC(=O)Cc3cccc(CN)c3)c2n1,inhibition,"PRVABC59, Concentration 49.95 uM, Number of replicates 2.0, Standard deviation 2.002239649301327 %",8.36%
same,inhibition,"PRVABC59, Concentration 99.9 uM, Number of replicates 2.0, Standard deviation 0.9082841415474754 %",22.1%
CN(C)c1ccc(CNC(=O)c2cc(Cl)ccc2NS(=O)(=O)c2ccc(Oc3ccccc3Cl)cc2)cc1,inhibition,[2],17.4%
O=C(NC1CCN(C(=O)c2cc(Cl)ccc2NS(=O)(=O)c2ccc(Oc3ccccc3Cl)cc2)CC1)c1ccccc1,inhibition,[2],10.3%
Cc1cc(Br)c(NC(=O)c2cc(Cl)ccc2NS(=O)(=O)c2ccc(Oc3ccccc3Cl)cc2)c([N+](=O)[O-])c1,inhibition,[2],22.9%
Cc1cc(CO)c2cccc(C[C@H](NC(=O)Cc3nnc(C)[nH]3)C(=O)O)c2n1,inhibition,"PRVABC59, Concentration 49.95 uM, Number of replicates 2.0, Standard deviation 0.5068325434955111 %",2.74%
same,inhibition,"PRVABC59, Concentration 99.9 uM, Number of replicates 2.0, Standard deviation 0.9333753405777689 %",9.45%
CCOCc1nc(Cn2cc(C3CCNCC3)c(C)n2)cs1,inhibition,"PRVABC59, Concentration 49.5 uM, Number of replicates 2.0, Standard deviation 3.999716409692983 %",-1.96%
same,inhibition,"PRVABC59, Concentration 99.01 uM, Number of replicates 2.0, Standard deviation 4.660467178754702 %",-0.974%
same,inhibition,"PRVABC59, Concentration 198.0 uM, Number of replicates 2.0, Standard deviation 3.9603613262806023 %",-0.265%
CCN(C(=O)C1CCN(c2ccc(C=O)cc2)CC1)[C@H]1CCOC(C)(C)C1,inhibition,[1],24.4%
